{
  "source": "PubChem BioAssay AID463173",
  "about": "(ICCB-Longwood Screening Facility, Harvard Medical School, 2010)",
  "note": "In all, about 52,000 compounds went through this assay and about 4,300 (8.3%) were called active. No stated cut-off is given here; in the data, active means survival mostly below about 52% (no sharp cut-off); inactive means mostly above about 56%. The list shows a part of the results.",
  "data": [
    {"tested_on": "DeltatarO mutant", "assay": "growth inhibition of S. aureus wild type versus tarO mutant, primary screen, teichoic acid synthesis inhibitors, RN4220, OD600 (AID 463173)", "details": "OD600, 18 h, hits give low values, screened at 18.75 µg/mL (by protocol)", "values": [
      {"smiles": "O=C(Nc1cccc(NC(=O)c2ccccc2Cl)c1)c1cccc(Br)c1", "survival": "inactive: 79%"},
      {"smiles": "Cc1c(C(=O)Nc2ccc(F)cc2F)sc2nc3n(c(=O)c12)N=C(c1ccccc1)CS3", "survival": "inactive: 77%"},
      {"smiles": "Cn1nccc1C(=O)NCc1ccc2c(c1)CCN2C(=O)c1ccc(Cl)cc1", "survival": "inactive: 84%"},
      {"smiles": "CC(Sc1oc(-c2cccs2)nc1S(=O)(=O)c1ccccc1)c1ccccc1", "note": "(stereo not drawn)", "survival": "active: 44%"},
      {"smiles": "O=C1c2ccccc2-c2onc3c(NCCO)cc(NC4CCCCC4)c1c23", "survival": "inactive: 74%"},
      {"smiles": "COc1ccc(C(CNC(=O)COc2cc(C)cc(C)c2)N2CCOCC2)cc1", "note": "(stereo not drawn)", "survival": "inactive: 65%"},
      {"smiles": "CCc1ccc(Oc2c(C(F)(F)F)oc3c(CN4CCCC(C)C4)c(O)ccc3c2=O)cc1", "note": "(stereo not drawn)", "survival": "inactive: 77%"},
      {"smiles": "CCc1ccc(NC(=O)c2nn(-c3ccc(OC)cc3)c(=O)c3c2c2ccccc2n3C)cc1", "survival": "inactive: 76%"},
      {"smiles": "COc1ccc(N2CCN(c3csc4ccccc4c3=O)CC2)cc1", "survival": "inactive: 81%"},
      {"smiles": "CCCCOc1ccc(Cn2c(=O)sc3ccccc32)cc1", "survival": "active: -1%"},
      {"smiles": "CC(CNC(=O)CCS(=O)(=O)c1cc2c(cc1Cl)NC(=O)CO2)c1ccccc1", "note": "(stereo not drawn)", "survival": "inactive: 79%"},
      {"smiles": "CCOC(=O)c1ccccc1NC(=O)CCc1nc(-c2ccc(C)cc2)no1", "survival": "inactive: 58%"},
      {"smiles": "c1ccc(N2CCN(N=C3c4ccccc4-c4ccccc43)CC2)nc1", "survival": "active: 18%"},
      {"smiles": "CCOC(=O)c1c(NC(=O)CSc2cn(CCNC(=O)c3ccccc3F)c3ccccc23)sc2c1CCCC2", "survival": "inactive: 89%"},
      {"smiles": "O=C(Cn1c(=O)n(-c2ccc(Cl)cc2)c(=O)c2c3c(sc21)CCC3)c1ccccc1", "survival": "inactive: 78%"},
      {"smiles": "CC(C)(C)OC(=O)N1CCC(c2c(C(=O)N3CCN(C(=O)c4ccco4)CC3)cnn2-c2ccccc2Cl)CC1", "survival": "inactive: 67%"},
      {"smiles": "COCCCNC(=O)c1ccc2c(c1)NC(=O)C(C(C)C)N2", "note": "(stereo not drawn)", "survival": "inactive: 57%"},
      {"smiles": "CCOC(=O)c1ccc(NC(=O)c2nn(C)c3c2COc2ccccc2-3)cc1", "survival": "inactive: 106%"},
      {"smiles": "Cc1ccc(S(=O)(=O)c2nnn3c2nc(NCc2ccccc2Cl)c2sccc23)cc1", "survival": "inactive: 78%"},
      {"smiles": "O=C(/C=C\\Nc1ccccn1)c1ccc2c(c1)OCO2", "survival": "inactive: 94%"},
      {"smiles": "CC(C)c1ccc(OCc2cc(=O)n3c(-c4ccccc4)csc3n2)cc1", "survival": "inactive: 117%"},
      {"smiles": "COc1cc(-c2cc(OC)c3c(C)oc(C)c3c(=O)c2)ccc1OC(=O)c1cccc(Cl)c1", "survival": "inactive: 103%"},
      {"smiles": "Cn1c(SCc2ccccc2F)nc2c([nH]c3ccccc32)c1=O", "survival": "inactive: 97%"},
      {"smiles": "CCc1nn(CCCC(=O)NC(C)c2ccccc2)c(=O)c2cc3occc3n12", "note": "(stereo not drawn)", "survival": "inactive: 83%"},
      {"smiles": "Cc1ccc(Cn2cc(CCC(=O)NCc3ccc(OC(C)C)cc3)c3ccccc32)cc1", "survival": "inactive: 81%"},
      {"smiles": "CCCCNC(=O)C(CC)Sc1nc2ccccc2c(=O)n1CCc1ccc(OC)c(OC)c1", "note": "(stereo not drawn)", "survival": "inactive: 122%"},
      {"smiles": "COCCN(CCOC)c1ncnc2c1c(-c1ccccc1)cn2-c1ccc(C)c(Cl)c1", "survival": "inactive: 67%"},
      {"smiles": "Cc1cc2ccccc2n2c(SCC(=O)O)nnc12", "survival": "inactive: 81%"},
      {"smiles": "Cc1ccc(NC(=O)C(C#N)Cc2ccncc2)cc1C", "note": "(stereo not drawn)", "survival": "inactive: 67%"},
      {"smiles": "CC(C)(C)NC(=O)c1oc2ccccc2c1NC(=O)c1ccc(F)cc1", "survival": "inactive: 71%"},
      {"smiles": "CCC(=O)Nc1ccc(C(=O)Nc2c[nH]c(=O)[nH]c2=O)cc1", "survival": "inactive: 85%"},
      {"smiles": "Cc1ccccc1C(=O)c1cccn1CC(=O)NCc1cccc(Cl)c1", "survival": "inactive: 92%"},
      {"smiles": "COC(=O)CSc1n[nH]c(CNc2cccc(C)c2)n1", "survival": "inactive: 57%"},
      {"smiles": "Cc1ccc2[nH]c(=O)c3cc(C(=O)NCCc4ccc(Cl)cc4)sc3c2c1", "survival": "inactive: 74%"},
      {"smiles": "O=C(c1ccc2c(c1)N(Cc1cccc(Cl)c1)C(=O)c1ccccc1S2)N1CCOCC1", "survival": "inactive: 82%"},
      {"smiles": "c1ccc(OCCn2c(COc3ccccc3)nc3ccccc32)cc1", "survival": "active: 0%"},
      {"smiles": "O=C1c2oc3ccccc3c(=O)c2C(c2cccc(Cl)c2)N1c1ccccn1", "note": "(stereo not drawn)", "survival": "inactive: 67%"},
      {"smiles": "CCOc1ccc2nc(NCCNC(=O)COc3ccccc3)c(C#N)cc2c1", "survival": "inactive: 88%"},
      {"smiles": "Cc1ccc(NC(=O)Cn2c(=O)n(Cc3ccc4c(c3)OCO4)c(=O)c3ccc(C(=O)NC4CCCCC4)cc32)c(C)c1", "survival": "inactive: 100%"},
      {"smiles": "CCc1ccc(NC(=O)Cn2c(-c3cncs3)nc3ccccc32)cc1", "survival": "inactive: 59%"},
      {"smiles": "CC(C)C(Nc1n[nH]c(=O)[nH]c1=O)C(=O)O", "note": "(stereo not drawn)", "survival": "inactive: 98%"},
      {"smiles": "CCn1c2ccccc2c2cc(CN3CCN(Cc4ccccc4C)CC3)ccc21", "survival": "active: -3%"},
      {"smiles": "COc1ccc(C)cc1NC(=O)c1ccc2c(c1)nnn2C1CCCC1", "survival": "inactive: 87%"},
      {"smiles": "COc1ccccc1C(=O)Nc1ccc(OCc2cc(=O)n3cc(C)sc3n2)cc1", "survival": "inactive: 130%"},
      {"smiles": "COc1ccccc1NC(=O)C1CCC(CNS(=O)(=O)c2ccc3c(c2)CC(C)N3C(C)=O)CC1", "note": "(stereo not drawn)", "survival": "inactive: 58%"},
      {"smiles": "O=C(Nc1ccc(S(=O)(=O)N2CCCCCC2)cc1)c1cc(=O)c2ccccc2o1", "survival": "inactive: 70%"},
      {"smiles": "Cc1cc(-n2c(C)nc3ccccc3c2=O)ccc1NC(=O)c1ccc([N+](=O)[O-])cc1", "survival": "inactive: 83%"},
      {"smiles": "O=C(Cn1c(=O)c2cccn2c2cccnc21)NCc1ccccc1F", "survival": "inactive: 78%"},
      {"smiles": "CCOC(=O)/C(C#N)=C1\\CC2CCC1(C)C2(C)C", "note": "(stereo not drawn)", "survival": "inactive: 98%"},
      {"smiles": "CC1=C(C(=O)Nc2ccc(C)cc2C)C(c2ccccc2F)n2nc(SCC(=O)c3ccc(C)cc3)nc2N1", "note": "(stereo not drawn)", "survival": "inactive: 129%"},
      {"smiles": "O=S(=O)(Nc1ccc(-c2ccc(N3CCCC3)nn2)cc1)c1cc(F)ccc1F", "survival": "inactive: 96%"},
      {"smiles": "Cc1cc2nc(-c3ccc(OCc4ccccc4)cc3)cc(C(F)(F)F)n2n1", "survival": "inactive: 79%"},
      {"smiles": "CCc1ccc(NC(=O)c2cnc3sc(N4CCCC4)nn3c2=O)cc1", "survival": "inactive: 78%"},
      {"smiles": "Cc1ccc(CN(Cc2ccco2)C(=O)c2oc3c(C)c(C)ccc3c2C)cc1", "survival": "inactive: 50%"},
      {"smiles": "COCCNC(=O)c1cc2c(Cl)nc3ccc(C)cc3c2s1", "survival": "inactive: 88%"},
      {"smiles": "N#CC1=C(S)N(c2ccccc2)C2(CCCCC2)NC1=O", "survival": "inactive: 84%"},
      {"smiles": "COc1cccc(N(CC(=O)N2CCC(C)CC2)S(=O)(=O)c2ccc(C)cc2)c1", "survival": "inactive: 79%"},
      {"smiles": "COc1cc(OC)c(Nc2ncnc3onc(-c4cccc(Cl)c4)c23)cc1Cl", "survival": "inactive: 73%"}
    ]}
  ]
}
